# Source: PubChem BioAssay AID485281 (National Center for Advancing Translational Sciences (NCATS), 2010)
# Screen size: about 350,000 compounds; about 260 (0.074%) were called active. Inconclusive results, whose numbers are uncertain, are shown with a selection of clear calls. Calls come from the whole dose curve; as a rule, active = well fitted inhibition curve with a large enough effect; inconclusive = small, poorly fitted or top-dose-only effect; inactive = no such curve, though single readings can be large or run the other way. Where the call is inconclusive, the potency comes from a doubtful curve fit.
# Target: Ferritin light chain (Equus caballus) (UniProt P02791)
# Experiment: qHTS Assay for Identification of Novel General Anesthetics; note: nearly all actives have a fitted effect of over 20% in size
# Conditions: apoferritin/1-aminoanthracene competitive binding, fluorescence; series mostly up to 77.5 µM
# Outline: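 Horse-spleen apoferritin (10 uM) was mixed with 50% saturated 1-aminoanthracene in PBS, exposed to compounds for 10 min at room temperature, and read for fluorescence (ex 380 nm, em 535 nm). Competitive displacement was fitted with a four-parameter Hill equation.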
# Potency is the fitted concentration of half-maximal effect; tags give direction and shape of the fitted curve.
# Sequence of UniProt P02791 (P02791 whole entry, looked up): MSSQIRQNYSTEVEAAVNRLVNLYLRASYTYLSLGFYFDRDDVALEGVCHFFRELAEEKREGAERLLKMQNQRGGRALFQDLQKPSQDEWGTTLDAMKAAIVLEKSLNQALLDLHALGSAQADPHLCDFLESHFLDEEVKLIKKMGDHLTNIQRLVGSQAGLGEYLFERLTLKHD
row,SMILES,Potency
1,CC(C)(C)N=C1SCC(C)(/C=N/O)S1 (stereo not given),"inconclusive: 28.2 µM [inhibitor, partial curve]"
2,Cc1nnsc1C(=O)NC1CCCc2c1cnn2-c1ccc(C(C)(C)C)cc1 (stereo not given),"inconclusive: 8.91 µM [inhibitor, partial curve]"
3,O=C(OCc1c(F)cccc1Cl)c1cccnc1Cl,"inconclusive: 28.2 µM [inhibitor, single point]"
4,S=c1[nH]nc(C2COc3ccccc3O2)o1 (stereo not given),"inconclusive: 44.7 µM [inhibitor, single point]"
5,CN(C(=O)c1ccc(Oc2ccc([N+](=O)[O-])cc2)cc1)C1CCCCC1,"inconclusive: 31.6 µM [inhibitor, partial curve]"
6,CC(NC(=O)Nc1cccc([N+](=O)[O-])c1)c1ccc2c(c1)OCO2 (stereo not given),"inconclusive: 28.2 µM [inhibitor, single point]"
7,O=C(NNC(=O)C12CC3CC(CC(C3)C1)C2)c1ccccn1,"inconclusive: 44.7 µM [inhibitor, single point]"
8,COC(=O)C1CCCCN1C(=O)c1ccc2oc(Cc3ccccc3)nc2c1 (stereo not given),"inconclusive: 28.2 µM [inhibitor, partial curve]"
9,CCOc1ccccc1NC(=O)Cn1nc(N2CCN(c3ccccc3)CC2)ccc1=O,"inconclusive: 17.8 µM [inhibitor, partial curve]"
10,C/C(=N\NC(=O)CNC(=O)c1cccc(F)c1)c1ccc2ccccc2c1,"inconclusive: 35.5 µM [inhibitor, partial curve]"
11,Cc1ccc(NC(=O)C2C3CCCCC32)cc1[N+](=O)[O-] (stereo not given),"inconclusive: 28.2 µM [inhibitor, partial curve]"
12,CC(=O)c1sc(N/N=C\c2ccc(Br)cc2)nc1C,inactive
13,CCOCCCNC(=S)N1CCN(c2nc(-c3ccccc3)cs2)CC1,inactive
14,CNc1sc(C(=O)c2cccs2)c(N)c1-c1nc2ccccc2s1,"inconclusive: 15.8 µM [inhibitor, partial curve]"
15,CCNC(=O)NC(=O)C(C)OC(=O)C(C)(C)Oc1ccc(Cl)cc1 (stereo not given),"inconclusive: 35.5 µM [inhibitor, partial curve]"
16,O=C(COC(=O)c1n[nH]c2ccccc12)c1cccc(Br)c1,"inconclusive: 14.1 µM [inhibitor, partial curve]"
17,COC(=O)c1[nH]c2ccccc2c1NC(=O)CN1CCN(Cc2ccc3c(c2)OCO3)CC1,"inconclusive: 15.8 µM [inhibitor, partial curve]"
18,COc1cc(SC)ccc1C(=O)N(C)Cc1ccccc1,"inconclusive: 28.2 µM [inhibitor, partial curve]"
19,NNC(=O)CNc1ccccc1Cl,"inconclusive: 28.2 µM [inhibitor, partial curve]"
20,CCS(=O)(=O)n1nc(-c2ccc(C)cc2)nc1N,inactive
21,O=C(c1cc([N+](=O)[O-])cc([N+](=O)[O-])c1)N1CCCc2ccccc21,"inconclusive: 31.6 µM [inhibitor, partial curve]"
22,CC(C)(C)OC(=O)NNC(=O)NC12CC3CC(CC(C3)C1)C2,"inconclusive: 11.2 µM [inhibitor, partial curve]"
23,COc1ccc(CNC(=O)C(=O)NCC(c2cccs2)S(=O)(=O)c2cccs2)cc1 (stereo not given),inactive

row,SMILES,Potency
1,COC1CCCCC1Nc1cccc(SC)c1 (stereo not given),"inconclusive: 15.8 µM [inhibitor, partial curve]"
2,O=C(Nc1nc2cc3c(cc2s1)OCCO3)c1cccs1,"inconclusive: 50.1 µM [inhibitor, single point]"
3,CCOC(=O)N1CC=C2C(C#N)=C(N)C(C#N)(C#N)[C@H](c3cccs3)C2C1 (stereo not given in full),inactive
4,C=CCNC(=O)c1onc(CSc2cccc3ccccc23)c1C(=O)O,"inconclusive: 25.1 µM [inhibitor, partial curve]"
5,CC1CCCC(NC(=O)COC(=O)c2ccc(N(C)C)cc2)C1C (stereo not given),"inconclusive: 3.98 µM [inhibitor, full curve]"
6,CCc1nc(Nc2ccc(OC)c(OC)c2)c2nnn(Cc3ccccc3Cl)c2n1,inactive
7,O=c1c(N2CCN(c3cccc(Cl)c3)CC2)csc2ccc(Cl)cc12,"inconclusive: 12.6 µM [inhibitor, partial curve]"
8,CSc1ccc(C(=S)N2CCN(Cc3ccccc3)CC2)cc1,"inconclusive: 31.6 µM [inhibitor, partial curve]"
9,CC(C)CCN(Cc1ccco1)S(=O)(=O)c1ccc(-c2ccc(=O)[nH]n2)s1,"inconclusive: 28.2 µM [inhibitor, partial curve]"
10,COCCCNC(=O)C1CCN(c2nc3ccc(Cl)cc3[nH]2)CC1,"inconclusive: 3.16 µM [inhibitor, partial curve]"
11,Cc1ccc(-c2ccc(C(=O)NCc3ccc(Cl)cc3)o2)c2ccccc12,"inconclusive: 50.1 µM [inhibitor, single point]"
12,COc1ccc2nc(SCCOC(=O)Nc3ccc(Cl)cc3)nc(C)c2c1,inactive
13,COc1ncnc2c1oc1nc(CC(C)C)c3c(c12)CC(C)(C)OC3,"inconclusive: 5.62 µM [inhibitor, partial curve]"
14,CC(C)CC(=O)NC(Nc1ccccc1F)C(Cl)(Cl)Cl (stereo not given),"inconclusive: 17.8 µM [inhibitor, partial curve]"
15,O=c1c2ccccc2ncn1-c1ccccc1F,"inconclusive: 22.4 µM [inhibitor, partial curve]"
16,COc1ccc(NCC(=O)N/N=C/c2cc([N+](=O)[O-])ccc2N2CCCC2)cc1,"inconclusive: 14.1 µM [inhibitor, partial curve]"
17,O=C(c1cc2cc3ccc(Cl)cc3nc2o1)N1CCN(c2cccc(Cl)c2)CC1,inactive
18,c1cncc(-c2nc(N3CCCCCC3)c3ccccc3n2)c1,"inconclusive: 17.8 µM [inhibitor, partial curve]"
19,O=C(N/N=C/c1ccc(-c2ccccc2Cl)o1)c1ccccc1,inactive
20,Nc1n[nH]c2ccccc12,inactive
21,Clc1ccc(CN2CCCCCC2)cc1Cl,"inconclusive: 35.5 µM [inhibitor, partial curve]"
22,Cc1ccc(C)c(NC(=O)CCc2ccc(C)o2)c1,inactive
